Data from PubChem BioAssay AID504333 (National Center for Advancing Translational Sciences (NCATS), 2011).
About 16,000 (4.4%) of roughly 360,000 compounds were called active. The shares of active, inactive and inconclusive entries below differ from those in the screen. The call rests on the fitted dose curve; in most records, active means well fitted inhibition curve with a large enough effect; inconclusive means small, poorly fitted or top-dose-only effect; inactive means no such curve, though single readings can be large or run the other way. Potencies beside an inconclusive call are fits to weak or partial responses and may not hold up.

What follows are compounds tested against Bromodomain adjacent to zinc finger domain protein 2B (Homo sapiens) (UniProt Q9UIF8) (assay: qHTS Assay for Inhibitors of BAZ2B). Settings: AlphaScreen BAZ2B-H3K14Ac peptide displacement; series mostly up to 114 µM.
Sequence of UniProt Q9UIF8 (Q9UIF8 whole entry, looked up, the tested form may be a part): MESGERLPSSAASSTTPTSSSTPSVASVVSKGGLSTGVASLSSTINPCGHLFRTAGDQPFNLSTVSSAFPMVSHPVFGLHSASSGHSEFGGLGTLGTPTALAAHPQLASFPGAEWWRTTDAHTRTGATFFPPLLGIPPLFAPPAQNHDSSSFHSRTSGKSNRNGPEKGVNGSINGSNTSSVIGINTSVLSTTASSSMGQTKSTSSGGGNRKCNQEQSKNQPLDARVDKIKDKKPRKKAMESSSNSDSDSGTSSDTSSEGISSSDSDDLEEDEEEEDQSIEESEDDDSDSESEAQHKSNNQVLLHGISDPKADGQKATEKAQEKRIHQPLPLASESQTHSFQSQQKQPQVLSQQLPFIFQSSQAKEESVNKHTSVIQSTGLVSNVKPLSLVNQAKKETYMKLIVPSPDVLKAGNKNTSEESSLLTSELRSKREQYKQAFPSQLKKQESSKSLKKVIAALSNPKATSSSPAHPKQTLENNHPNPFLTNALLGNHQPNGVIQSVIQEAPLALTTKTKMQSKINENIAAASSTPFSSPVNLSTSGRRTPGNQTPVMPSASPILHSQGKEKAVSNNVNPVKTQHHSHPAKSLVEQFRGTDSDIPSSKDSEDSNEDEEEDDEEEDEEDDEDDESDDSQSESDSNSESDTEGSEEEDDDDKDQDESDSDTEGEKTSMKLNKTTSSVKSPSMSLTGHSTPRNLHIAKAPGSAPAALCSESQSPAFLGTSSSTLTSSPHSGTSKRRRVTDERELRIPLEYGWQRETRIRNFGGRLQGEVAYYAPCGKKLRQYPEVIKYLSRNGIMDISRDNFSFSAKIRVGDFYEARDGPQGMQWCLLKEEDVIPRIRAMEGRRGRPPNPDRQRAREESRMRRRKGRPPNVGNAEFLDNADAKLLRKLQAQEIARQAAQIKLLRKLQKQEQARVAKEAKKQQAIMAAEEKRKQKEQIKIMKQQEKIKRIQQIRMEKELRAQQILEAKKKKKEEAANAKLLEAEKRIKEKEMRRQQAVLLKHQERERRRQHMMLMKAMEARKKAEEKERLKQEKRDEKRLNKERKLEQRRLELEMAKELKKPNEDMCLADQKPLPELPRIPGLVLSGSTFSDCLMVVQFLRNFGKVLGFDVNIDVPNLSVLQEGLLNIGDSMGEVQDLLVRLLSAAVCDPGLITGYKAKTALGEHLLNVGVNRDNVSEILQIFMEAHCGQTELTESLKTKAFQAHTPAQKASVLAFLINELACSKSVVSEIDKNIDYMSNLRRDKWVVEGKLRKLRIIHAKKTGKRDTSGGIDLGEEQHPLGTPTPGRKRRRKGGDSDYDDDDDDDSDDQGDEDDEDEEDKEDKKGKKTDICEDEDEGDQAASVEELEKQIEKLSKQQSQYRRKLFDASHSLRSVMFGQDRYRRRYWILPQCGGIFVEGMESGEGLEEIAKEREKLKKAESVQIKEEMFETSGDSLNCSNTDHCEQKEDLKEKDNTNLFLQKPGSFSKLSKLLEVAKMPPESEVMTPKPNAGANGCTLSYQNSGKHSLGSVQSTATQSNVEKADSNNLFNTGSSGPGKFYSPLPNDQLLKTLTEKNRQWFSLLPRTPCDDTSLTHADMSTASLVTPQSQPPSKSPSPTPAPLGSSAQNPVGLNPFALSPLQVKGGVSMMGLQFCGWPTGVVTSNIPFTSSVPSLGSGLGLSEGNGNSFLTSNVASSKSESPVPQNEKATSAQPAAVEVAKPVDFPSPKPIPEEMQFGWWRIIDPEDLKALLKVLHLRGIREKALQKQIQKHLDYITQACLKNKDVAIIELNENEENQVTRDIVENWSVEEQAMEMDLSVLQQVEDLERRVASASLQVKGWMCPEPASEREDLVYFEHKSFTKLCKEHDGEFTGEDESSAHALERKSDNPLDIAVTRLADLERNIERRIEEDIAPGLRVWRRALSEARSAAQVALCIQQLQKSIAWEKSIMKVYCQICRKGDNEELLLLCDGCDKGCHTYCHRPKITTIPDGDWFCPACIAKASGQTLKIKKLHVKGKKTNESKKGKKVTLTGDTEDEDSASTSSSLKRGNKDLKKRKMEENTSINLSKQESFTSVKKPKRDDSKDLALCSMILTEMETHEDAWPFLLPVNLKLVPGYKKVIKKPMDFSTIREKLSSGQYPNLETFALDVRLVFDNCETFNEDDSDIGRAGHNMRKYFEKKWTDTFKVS
How it was run: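 AlphaScreen displacement: compounds (up to 110uM) incubated 30 min at room temperature with a preformed 50 nM BAZ2B/50 nM biotinylated H3K14Ac peptide complex in PBS pH 7.4 with Tween-20. Donor and acceptor beads at 10 ug/mL final added, 20 min light-protected before reading.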
Further: nearly all actives have a fitted effect of over 60% in size.
Potency means the concentration at half of the fitted maximal effect; tags describe the fitted curve by direction and shape.

Structure (SMILES)	Potency
Cc1nnc(SCC(=O)NNC(=O)COc2ccc(Br)cc2)n1C	inactive
Cc1nn(Cc2ccc([N+](=O)[O-])cc2)c(=O)n1-c1ccccc1	inconclusive: 100 µM [inhibitor, single point]
Cc1cn2c(=O)c(S(=O)(=O)NCCc3ccccc3)c(C)nc2s1	inactive
CC(C)CN1CCc2nc(N3CCN(c4ncccn4)CC3)ncc2C1	inconclusive: 56.2 µM [inhibitor, partial curve]
O=C(NCc1ccccn1)c1ccc2nc(-c3ccco3)c(-c3ccco3)nc2c1	active: 11.2 µM
CCOc1ccc(CNc2ccc3c(c2)ncn3C)cc1	inconclusive: 44.7 µM [inhibitor, partial curve]
CC1CCN(C(=O)c2[nH]cnc2C(=O)Nc2nccs2)CC1	inconclusive: 89.1 µM [inhibitor, single point]
CCOc1cc(/C=N/NC(=O)CN(CCc2ccccc2)S(=O)(=O)c2ccc(NC(C)=O)cc2)ccc1O	inconclusive: 70.8 µM [inhibitor, single point]
COc1ccccc1-n1cc(CN2CCCC(CO)(Cc3cccc(Cl)c3)C2)cn1 (centres undefined)	inconclusive: 89.1 µM [inhibitor, single point]
CC(C)(/C=N/O)/[N+]([O-])=C/c1ccccc1C(F)(F)F	inconclusive: 89.1 µM [inhibitor, single point]
CC(NC(=O)c1cc(Sc2ccc(F)cc2F)nc2ccccc12)c1ccccc1 (centres undefined)	inactive
Cn1c(CCn2ccccc2=O)nc2cc(NC(=O)COc3ccccc3)ccc21	inactive
CC(C)C(C)NC(=O)COC(=O)c1cccc(C(=O)OCC(=O)NC(C)C(C)C)n1 (centres undefined)	inconclusive: 79.4 µM [inhibitor, partial curve]
O=C(c1ccc2c(Cl)c3c(nc2c1)CCCC3)N1CCN(c2ccc(F)cc2)CC1	inconclusive: 22.4 µM [inhibitor, full curve, poor fit]
CCN(CC)S(=O)(=O)c1ccc(N2CCOCC2)c(NC(=O)c2ccc(C#N)cc2)c1	inconclusive: 89.1 µM [inhibitor, single point]
O=c1cnc(-c2ccc(Cl)cc2)cn1O	inconclusive: 70.8 µM [inhibitor, single point]
Cc1ccc(NC(=S)NC(NC(=O)Cc2cccc3ccccc23)C(Cl)(Cl)Cl)cc1 (centres undefined)	inconclusive: 7.08 µM [inhibitor, single point]
O=[N+]([O-])c1cc2cccnc2c2ncccc12	active: 22.4 µM
Brc1ccccc1/C=N/N1CCCCC1	inconclusive: 50.1 µM [inhibitor, partial curve]
